According to publication PMC4336329 (PLoS ONE, 2015):
In all, about 310,000 compounds went through this assay and about 2,200 (0.71%) showed an effect of 50% or more. The effect is printed as a negative number. The list shows a part of the results.

Target: human ether-à-go-go-related gene (hERG) potassium channel (human, UniProt Q12809)
Experiment: primary screen, population patch clamp on CHO cells stably expressing hERG

Chain of human ether-à-go-go-related gene (hERG) potassium channel (Q12809 whole entry, looked up): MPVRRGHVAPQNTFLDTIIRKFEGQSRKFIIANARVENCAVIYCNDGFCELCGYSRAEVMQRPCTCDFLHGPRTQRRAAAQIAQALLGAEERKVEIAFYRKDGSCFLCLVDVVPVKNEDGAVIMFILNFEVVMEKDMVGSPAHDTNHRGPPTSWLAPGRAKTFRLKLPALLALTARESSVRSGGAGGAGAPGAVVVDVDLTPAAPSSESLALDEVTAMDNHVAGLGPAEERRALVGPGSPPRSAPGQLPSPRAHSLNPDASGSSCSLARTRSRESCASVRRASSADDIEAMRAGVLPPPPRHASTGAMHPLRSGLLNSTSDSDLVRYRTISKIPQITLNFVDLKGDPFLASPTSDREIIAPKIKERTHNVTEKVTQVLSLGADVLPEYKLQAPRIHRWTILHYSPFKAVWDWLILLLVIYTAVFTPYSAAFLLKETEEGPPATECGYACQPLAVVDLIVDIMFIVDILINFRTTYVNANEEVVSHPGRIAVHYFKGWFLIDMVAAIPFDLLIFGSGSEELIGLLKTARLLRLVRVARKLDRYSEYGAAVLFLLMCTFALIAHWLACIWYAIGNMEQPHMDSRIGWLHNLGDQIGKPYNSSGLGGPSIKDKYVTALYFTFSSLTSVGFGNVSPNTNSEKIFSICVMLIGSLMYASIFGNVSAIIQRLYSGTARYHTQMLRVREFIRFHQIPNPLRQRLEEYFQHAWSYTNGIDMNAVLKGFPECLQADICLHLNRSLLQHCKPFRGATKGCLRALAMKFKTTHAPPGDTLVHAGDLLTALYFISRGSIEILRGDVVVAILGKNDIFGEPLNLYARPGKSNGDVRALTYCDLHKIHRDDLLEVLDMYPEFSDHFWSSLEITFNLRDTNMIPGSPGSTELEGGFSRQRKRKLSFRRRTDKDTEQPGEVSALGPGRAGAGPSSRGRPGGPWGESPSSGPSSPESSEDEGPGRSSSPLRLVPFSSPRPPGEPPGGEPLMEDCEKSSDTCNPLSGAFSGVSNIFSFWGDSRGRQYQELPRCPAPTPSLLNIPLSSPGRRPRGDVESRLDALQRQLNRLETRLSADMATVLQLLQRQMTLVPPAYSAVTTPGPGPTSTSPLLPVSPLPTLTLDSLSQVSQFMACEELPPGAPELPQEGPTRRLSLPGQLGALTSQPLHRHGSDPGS

Structure (SMILES) | hERG current change (%, negative = inhibition) at 1uM [%]
COC(=O)C1=CN(c2ccc(F)cc2)C=C(C(=O)OC)C1c1cccc(Br)c1 | 15.9
COc1ccc(CCNC(=O)C(C(=O)c2ccccc2)n2cc(Cl)ccc2=O)cc1OC (stereo not drawn) | 6.77
O=C(NCCO)c1cccc2c1C(=O)c1ccccc1-2 | 0.608
N#C/C(=N\Nc1ccc(Cl)cc1)C(=O)c1ccccc1 | 8.15
CC(C)CNC(=O)c1ccc(Cl)c(NC(=O)COc2ccccc2)c1 | 13.8
CC(C)[C@H]1C=C(C(=O)O)O[C@@H](OCCCCO)C1 | 7.8
CSCCC(NS(=O)(=O)c1cccc(C(F)(F)F)c1)C(=O)N(C)Cc1ccc2c(c1)OCCO2 (stereo not drawn) | 3.37
O=C(CN1CCc2ccccc2C1)Nc1ccccc1C(=O)NC1CC1 | 3.95
O=C(CCNC(=O)c1ccccc1)NCC1CCCCC1 | 6.82
CC(OC(=O)c1ccc(S(=O)(=O)N2CCOCC2)cc1)c1ccccc1 (stereo not drawn) | -8.54
Cc1ccccc1NC(=O)NC1(C(=O)N2CCCC2)CCCCC1 | 3.15
Cc1ccc(S(=O)(=O)CC(N)=O)cc1 | -0.125
O=C(Cc1ccccc1)NC1CCS(=O)(=O)C1 (stereo not drawn) | 9.39
CCOC(=O)N1CCN(C(=O)CN(c2cccc(C(F)(F)F)c2)S(=O)(=O)c2ccccc2)CC1 | 2.99
COC(=O)CCn1nnc(-c2ccc(C)cc2)n1 | 13.6
Cc1cccc(N=Nc2c(N)n[nH]c2-c2ccc(Cl)cc2)c1 | 7.73
COc1ccccc1N1CCN(C(=O)c2cc(C(C)(C)C)oc2C)CC1 | 14.3
O=C(O)c1cccc(Cn2cc(Br)cn2)c1 | 5.26
O=[N+]([O-])c1ccc(C2Oc3ccccc3C3CC(c4ccccc4)=NN32)s1 (stereo not drawn) | -0.0184
CCOc1ccccc1CN1CCCC(C(=O)Nc2cccc(-n3cccn3)c2)C1 (stereo not drawn) | -23.6
Cc1ccc(O)c(NC(=S)NC(=O)Cc2ccc(Cl)cc2)c1 | 15.8
COc1cc(C(=O)Oc2ccccc2N)cc(OC)c1OC | 6.9
COc1cc(NC(=O)c2ccc(CNc3c(N4CCCC4)c(=O)c3=O)cc2)cc(OC)c1OC | 5.58

Structure (SMILES) | hERG current change (%, negative = inhibition) at 1uM [%]
CCN(CC(=O)Nc1ccc(NC(C)=O)cc1)C(=O)c1ccc(N2CCC(C)CC2)c([N+](=O)[O-])c1 | -3.07
COC(=O)c1nn(-c2ccc(-c3ccccc3)cc2)cc1O | 10.8
CC1(C)CC(=O)C=C(Nc2ccc(OCC(F)(F)C(F)F)cc2)C1 | -28.1
Cc1cccc2cc(CN(Cc3ccco3)C(=O)c3cccs3)c(=O)[nH]c12 | 3.9
CCOC(=O)c1sc(NS(=O)(=O)c2ccccc2)nc1C | 11.2
CN1CCC(N(C)S(=O)(=O)c2ccc(NC(=O)COc3ccc(Br)cc3Cl)cc2)CC1 | 10.9
COc1ccccc1NS(=O)(=O)c1cccc(C(=O)OCC(=O)Nc2cc(C)on2)c1 | -10.8
CC(=O)N1CCN(c2ccc(Nc3ncnc4c3oc3ccccc34)cc2)CC1.Cl | -11.4
Cn1c(O)c(C2=NN(C(=O)CCl)C(c3ccccc3)C2)c(=O)n(C)c1=O (stereo not drawn) | 10.4
Oc1ccccc1-c1cc(-c2ccc(F)cc2)n[nH]1 | 12
COc1cc(O)c2c(c1)OC(C)(C)CC2=O | 12.3
O=C(O)CSCC(=O)N1CCN(S(=O)(=O)c2ccccc2)CC1 | 16.2
CN1CCCC(OC(=O)/C(C#N)=C/c2ccccc2)C1.Cl (stereo not drawn) | 11.5
C=CCNc1nc(N)c([N+](=O)[O-])c(NCCO)n1 | 8.73
Cc1ccc(S(=O)(=O)NC2=NCN(CCN3CCOCC3)CN2)cc1 | 8.91
CCN(CC)C(=O)Cn1cc(S(=O)(=O)CC(=O)NCc2ccc(F)cc2)c2ccccc21 | 8.35
O=c1cc(-c2ccccc2)[nH]c2nc3ccccc3n12 | 12
CCN(CC(=O)Nc1ccc(N2CCOCC2)cc1)C(=O)c1ccc(C#N)cc1 | 4.8
O=C(CCN1CCc2ccccc2C1)Nc1ccc(F)cc1 | -9.01
COc1cc(-c2csc(NC3CCCCC3)n2)cc(OC)c1OC | 10.4
COc1ccc(NS(=O)(=O)c2cccc(NC(=O)CCS(=O)(=O)c3ccccc3)c2)cc1 | 5.33
Cc1nnc(SCC(=O)Nc2cc(C(F)(F)F)ccc2N2CCOCC2)o1 | 8.14
